# Results taken from PubChem BioAssay AID686979 (National Center for Advancing Translational Sciences (NCATS), 2013).
# The whole screen tested about 420,000 compounds, of which about 50,000 (12%) were called active. This list was built around the results that the source calls inconclusive (neither active nor inactive); the mix of calls is not that of the screen. The call rests on the fitted dose curve; in most records, active means well fitted inhibition curve with a large enough effect; inconclusive means small, poorly fitted or top-dose-only effect; inactive means flat fitted curve, though single readings scatter. Potencies of inconclusive entries are left out as doubtful fits.
# Assay: qHTS for Inhibitors of human tyrosyl-DNA phosphodiesterase 1 (TDP1): qHTS in cells in presence of CPT; further: nearly all actives have a fitted effect of over 55% in size
# Conditions: chicken DT40 Tdp1-/-;hTDP1 cells + 20 nM CPT, ATP luminescence, 48 h; activity change, negative = growth inhibition: at 46.2 µM (top of the series)
# Outline: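 Cell growth measured by CellTiter-Glo luminescence after a minimum 48 h, 37 C compound exposure with 20 nM CPT in Tdp1-knockout DT40 cells stably expressing hTDP1, seeded 400/well; qHTS titration format.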
# On the % scale 0 is the no-effect control and ±100 the full control effect; potency means the concentration at half of the fitted maximal effect; tags describe the fitted curve by direction and shape.
SMILES,Potency,"activity change, negative = growth inhibition"
NS(=O)(=O)c1ccc(CCNC(=O)CN2C(=O)COc3ccc(S(=O)(=O)N4CCCC4)cc32)cc1,inactive,
O=C(c1ccc(N2C(=O)C3C4CC(C(Br)C4Br)C3C2=O)cc1)N1CCCCC1 (centres undefined),inactive,
CCN(CC1CCCN(CCc2cccc(F)c2)C1)C(=O)c1cc2ccccc2o1 (centres undefined),active: 25.9 µM,
COc1ccc(NC(=O)C2(C)CCN2Cc2ccccc2Cl)cc1OC (centres undefined),active: 9.2 µM,
CCc1cccc(OCCCCNCCO)c1,inactive,
CCOC(=O)C1=CCN(S(=O)(=O)c2cccc(Cl)c2)C1c1cccc(C)c1 (centres undefined),"inconclusive [inhibitor, single point]",
O=C(Nc1ccc2oc(-c3cccc4c(Br)cccc34)nc2c1)c1cccc(Cl)c1,inactive,
CC1(C(=O)Nc2ccc3c(c2)OCCO3)CN(S(C)(=O)=O)CC(=O)N1CCc1ccccc1 (centres undefined),inactive,
COc1ccc(OCc2ccc(C(=O)NN)cc2)cc1,inactive,
C=CCn1cnc2c(c1=O)c1nc3ccccc3nc1n2/N=C/c1cc(OC)c(OC)c(OC)c1,active: 4.11 µM,
CC(=O)Nc1cccc(OCC(=O)Nc2sccc2C(N)=O)c1,"inconclusive [inhibitor, single point]",
COc1ccccc1N1CCN(C(=O)c2cc3cc(F)ccc3[nH]2)CC1,"inconclusive [inhibitor, single point]",
Cc1c(-c2ccccc2)nc(N)c(C#N)c1-c1ccco1,inactive,
CCC(C)n1c(OC)nc2c1c(=O)n(C)c(=O)n2C (centres undefined),active: 23.1 µM,
COc1cccc(Cn2cnc(-c3ccccc3OC)c2-c2cc(C)cc(C)c2)c1,"inconclusive [inhibitor, single point]",
CN(c1cccc(NC(=O)CN(c2cccc(Cl)c2)S(=O)(=O)c2ccc(Cl)cc2)c1)S(C)(=O)=O,"inconclusive [inhibitor, single point]",
NNc1nc2ccc(F)cc2s1,"inconclusive [inhibitor, single point]",
COc1ccc(NC(=O)NC23CC4(C)CC(C)(CC(C)(C4)C2)C3)cc1,"inconclusive [inhibitor, single point]",
COc1ccc(C(=O)N2CCN(C3CCC(c4ccccc4)CC3)CC2)cc1OC (centres undefined),active: 20.6 µM,
COc1ccc(CCn2c(NCc3ccco3)nc3c2c(=O)[nH]c(=O)n3C)cc1,"inconclusive [inhibitor, single point]",
N=C1C(c2nc3ccccc3c(=O)[nH]2)=C(O)CN1CCO,inactive,
N#CCC(=N)N1CCN(c2ccccc2)CC1,inactive,
C=CCN1C(c2ccc(Br)cc2)=CS/C1=C(/C#N)c1nnc(N2CCOCC2)n1-c1ccccc1,active: 7.31 µM,
COc1ccccc1NC(=O)CSCC(=O)N1c2ccccc2CCc2ccccc21,"inconclusive [inhibitor, partial curve]",

SMILES,Potency,"activity change, negative = growth inhibition"
Cc1ccc(N2C(=O)C(CN(C)C)C2c2ccccc2)cc1 (centres undefined),"inconclusive [inhibitor, single point]",
CCOc1ccccc1N=NC1C(=O)N(C(N)=S)N=C1C (centres undefined),active: 16.4 µM,
CCC(C)[C@H](NC(=O)N1CCN(c2cccc(C(F)(F)F)c2)CC1)C(=O)OC (some centres undefined),active: 14.6 µM,
CCSC(=S)c1c(C)[nH]n(-c2ccccc2)c1=O,active: 14.6 µM,
CCN(CC)S(=O)(=O)c1ccc2oc(C(=O)NC(C)C)c(C)c2c1,"inconclusive [inhibitor, partial curve, poor fit]",
O=c1oc2ccccc2c2c1nnn2CCO,inactive,
CC(=O)Nc1ccc(NC(=O)CSc2ncc(C(=O)Nc3ccccc3)c(=O)n2C)cc1,active: 20.6 µM,
Nc1cc2c(cc1C(=O)c1ccc(Cl)cc1)OCCO2,inactive,
CCc1ccc2c(c1)C(=O)C(=O)N2CCS(=O)(=O)c1ccccc1,active: 2.91 µM,
COc1ccc(C)cc1NC(=O)Cn1c(=O)oc2cc(S(=O)(=O)N3CCCCCC3)ccc21,active: 16.4 µM,
COc1ccc(OC)c(NC(=O)NCCCCc2ccccc2)c1,"inconclusive [inhibitor, single point]",
CCc1ccc2occ(CC(=O)Nc3c(C(=O)c4ccc(F)cc4)oc4ccccc34)c2c1,inactive,
CCCC(=O)NC(C)c1nc2ccccc2n1CC (centres undefined),"inconclusive [inhibitor, single point]",
COc1ccc(CNC(=O)CN2CCN(S(=O)(=O)c3cc(Br)ccc3Br)CC2)cc1OC,"inconclusive [inhibitor, single point]",
Cc1nccn1-c1ccc(C(F)(F)F)cc1[N+](=O)[O-],inactive,
N#C/C(=C\Nc1ccc(Cl)cc1)S(=O)(=O)c1ccccn1,inactive,
CSc1cccc(Nc2cc(C(=O)NC3CCCCC3)c3ccccc3n2)c1,"inconclusive [inhibitor, full curve]",
CCOC(=O)C1=C(C(=O)OCC)N(CC)CCC1=O,inactive,
Cc1cc(C)n(CC(=O)c2cccc([N+](=O)[O-])c2)n1,inactive,
CC1(C(=O)Nc2cccc3ccccc23)CCN1C(=O)Cc1ccccc1Cl (centres undefined),"inconclusive [inhibitor, single point]",
COc1ccc(CNC(=O)COc2cc(O)c3c(c2)OC(C)(C)CC3=O)c(OC)c1,"inconclusive [inhibitor, single point]",
CCCCn1c2ccc(C)cc2c2nnc(SCCN3CCCCC3)nc21,"inconclusive [inhibitor, single point]",
CCOC(=O)N1CCN(C(=O)c2ccc3c(=O)n(-c4ccc(OC)cc4)c(=S)[nH]c3c2)CC1,,inconclusive: -30.8% [inhibitor]
C/C(CC(=O)Nc1ccc2c(c1)OCCO2)=N\NC(=O)COc1cccc(C)c1,inactive,

SMILES,Potency,"activity change, negative = growth inhibition"
COc1ccccc1NC(NC(=O)c1ccccn1)C(Cl)(Cl)Cl (centres undefined),,inconclusive: -30.9% [inhibitor]
O=c1[nH]cc(S(=O)(=O)N2CCOCC2)c(=O)[nH]1,inactive,
COC(=O)c1sc2ccccc2c1-n1cccc1C(=O)C(=O)Nc1ccc(Cl)cc1,"inconclusive [inhibitor, single point]",
COc1cc2ncnc(NCc3cccc(Cl)c3)c2cc1OC,active: 14.6 µM,
CCOC(=O)c1c(-c2ccc(C)o2)csc1NC(=O)CN(C)CC(=O)Nc1ccc(C)cc1,"inconclusive [inhibitor, single point]",
N#CCCN(Cc1ccccc1)C(=O)c1nccnc1C(=O)O,inactive,
Cc1ccnc(Nc2nc(-c3ccc(F)cc3)cs2)c1,"inconclusive [inhibitor, single point]",
O=c1c2ccc([N+](=O)[O-])cc2ncn1CCOc1ccccc1,"inconclusive [inhibitor, single point]",
Cc1ccc(S(=O)(=O)N=S(CC2CC2(Cl)Cl)CC2CC2(Cl)Cl)cc1 (centres undefined),active: 23.1 µM,
CC(C)NC(=O)c1cc(C(=O)c2cc(Cl)ccc2O)coc1=N,inactive,
Cc1cccc(CCNC(=O)CCS(=O)(=O)c2ccc3nc(C)sc3c2)c1,inactive,
COc1cc2c(cc1OC)C(c1cc3cc4c(cc3[nH]c1=O)OCO4)N(C(=O)C(C)C)CC2 (centres undefined),"inconclusive [inhibitor, single point]",
Cc1ccc(NC(=S)NNC(=S)Nc2ccc(C)cc2C)cc1,active: 3.66 µM,
CC(=O)N1N=C(c2ccccc2)CC1c1cn(C)c2ccccc12 (centres undefined),"inconclusive [inhibitor, single point]",
CCOc1ccc(Cn2nnc(C(=O)NCCc3ccc(Cl)cc3)c2N)cc1,inactive,
O=C(O)c1cc(NC(=O)c2cccc(N3C(=O)c4ccccc4C3=O)c2)cc(C(=O)O)c1,inactive,
Cc1cc(NC(=O)c2cc(-c3ccc(OC(C)C)cc3)nc3ccccc23)no1,inactive,
COc1ccc(-c2c(N)n[nH]c2C)cc1OC,inactive,
Cn1c(N2CCOCC2)nc(-c2ccccc2)c1-c1ccccc1,inactive,
Cn1nc(-c2ccccc2)c(-c2ccccc2)c(C(=O)Nc2ccccc2C(N)=O)c1=O,"inconclusive [inhibitor, single point]",
CC(C)Cn1cnc2c(SCc3ccc(Cl)cc3)nc(N)nc21,"inconclusive [inhibitor, single point]",
O=C(C1CCCN(S(=O)(=O)c2ccc(F)cc2)C1)N1CCCCCC1 (centres undefined),active: 11.6 µM,
COc1cccc(C(=O)Nc2cc(S(=O)(=O)N3CCOCC3)ccc2N2CCOCC2)c1,inactive,
O=c1cc(N2CCCCC2)c(-c2ccccc2)nn1Cc1ccc(Cl)cc1,"inconclusive [inhibitor, single point]",

SMILES,Potency,"activity change, negative = growth inhibition"
CCc1nn(C(C)C(=O)N2CCN(c3ccc(OC)cc3)CC2)c(=O)c2cc3occc3n12 (centres undefined),active: 4.61 µM,
Cc1cc(C)cc(N2C(=O)CSC23C(=O)N(CC(N)=O)c2ccccc23)c1 (centres undefined),inactive,
COc1ccc(NC(=S)N2CCC(c3ccc(C)cc3)C2)cc1 (centres undefined),"inconclusive [inhibitor, single point]",
Cc1ccc(-n2c(N)c(C(=O)N3CCOCC3)sc2=S)cc1,"inconclusive [inhibitor, partial curve, poor fit]",
COc1ccc(S(=O)(=O)N2CC=C(c3ccccc3)CC2)cc1OC,"inconclusive [inhibitor, single point]",
COc1ccc(-c2c(C#N)c(SCC(=O)Nc3ccccc3)nc3c2CCCC3)cc1,active: 25.9 µM,
COCCCn1c(=O)c2sccc2n(Cc2cc(C(=O)OC)ccc2OC)c1=O,inactive,
O=C(NCCCO)/C(=C/c1ccc(-c2cccc([N+](=O)[O-])c2)o1)NC(=O)c1ccccc1,inactive,
O=C(CC1CCC1)NC(c1ccccc1)c1ccccc1,"inconclusive [inhibitor, single point]",
CN(C)C(=O)COC(=O)c1ccccc1OCC(=O)Nc1ccc(SC(F)F)cc1,"inconclusive [inhibitor, partial curve, poor fit]",
O=C(Cn1cc(/C=C\[N+](=O)[O-])c2ccccc21)Nc1ccccc1,active: 20.6 µM,
CCCN(CCC)c1cc(C)nc2nc(-c3ccc(C(C)(C)C)cc3)nn12,inactive,
C[C@H]1CN([C@@H](C)CO)C(=O)c2cccc(NC(=O)c3nc4ccccc4s3)c2O[C@H]1CN(C)C(=O)Nc1ccc(F)cc1,"inconclusive [inhibitor, single point]",
Cc1[nH]nc2nc(SCC(=O)NCCC3=CCCCC3)n(-c3ccc(Br)cc3)c(=N)c12,active: 11.6 µM,
CC(C)c1ccc(S(=O)(=O)N2CCN(C(=O)CN3C(=O)NC4(CCCC4)C3=O)CC2)cc1,inactive,
Cn1cnnc1SCCCN1C(=O)c2cccc3cccc(c23)C1=O,inactive,
Cn1cccc1C(=O)N1CCC2(CC1)CN(C(=O)Nc1ccccc1)C2,inactive,
O=C(O)c1cc(NS(=O)(=O)c2ccc(NC3CCCCC3)c([N+](=O)[O-])c2)cc(C(=O)O)c1,inactive,
CN(C)c1ccc(-c2nc3ccc(Cl)cn3c2Nc2ccc3c(c2)OCCO3)cc1,"inconclusive [inhibitor, single point]",
FC(F)(F)c1n[nH]c(=S)n1/N=C/c1ccco1,inactive,
Cc1c(C(=O)NCc2ccccc2C(F)(F)F)sc(=O)n1Cc1ccc2c(c1)OCO2,"inconclusive [inhibitor, single point]",
COCCN(Cc1ccc(C)c(Br)c1)S(=O)(=O)c1ccc2[nH]c(=O)ccc2c1,inactive,
